In PubChem BioAssay AID1508623 (National Center for Advancing Translational Sciences (NCATS), 2021):
Screen size: about 48,000 compounds; about 450 (0.94%) were called active. Inconclusive results (about 19%) are left out. The call rests on the fitted dose curve; in most records, active means well fitted inhibition curve with a large enough effect; inconclusive means small, poorly fitted or top-dose-only effect; inactive means no such curve, though single readings can be large or run the other way. The list shows a part of the results.

Test: Primary qHTS for Identification of Small Molecule Inhibitors of Huntingtin Promoter Activity; further: nearly all actives have a fitted effect of over 50% in size
Settings: HEK293 HTT promoter firefly luciferase reporter (activity 0% = vehicle and -100% = no light), 24 h; series mostly up to 57.5 µM; activity change, negative = inhibition: at the top concentration
How it was run: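 Firefly luciferase readout (Dual-Glo, 10 min RT) after 24 h, 37 °C compound exposure (final up to 57.5 uM) of HEK293 reporter cells cultured 24 h beforehand; PTC124 at 50 uM final as control inhibitor; activity scaled vehicle 0%, zero RLU -100%.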

Activity change, negative = inhibition, inactive:
COc1cc([C@H]2Oc3cc([C@H]4Oc5cc(O)cc(O)c5C(=O)[C@H]4O)ccc3O[C@H]2CO)ccc1O -15.1%
COc1cc(-c2ccc(=O)[nH]n2)ccc1OC(F)F 7.17%
O=C(Cn1nc(-c2ccccc2)c2cnc3ccc(F)cc3c21)NC1CCCC1 -0.287%
O=C(Nc1nnc(S(=O)(=O)N2CCCCCC2)s1)c1ccccc1F 39.7%
Cc1nc(N2CCOCC2)c2c(C(=O)N(C)Cc3ccccc3)c(C)oc2n1 2.16%
CCOc1cccc2sc(N3CCN(C(=O)C(C)(C)C)CC3)nc12 20.9%
Cc1ccc(-c2nnc(SCC(=O)N3CCCc4ccccc43)o2)cc1 -8.28%
Cc1cc(NC(=O)CSc2nc3c([nH]c4ccccc43)c(=O)n2-c2ccccc2F)no1 -9.53%
Cc1ccc(C(=O)c2oc3ccccc3c2NC(=O)c2cc(=O)c3cc(C)ccc3o2)cc1 -9.67%
COc1cccc(Cn2ccn(-c3ccc(F)cc3)c(=O)c2=O)c1 -8.05%
Cc1ccc(NC(=O)c2nnn(Cc3cccc(C(F)(F)F)c3)c2N)c(C)c1 -26.9%
O=C(Nc1ccc(Cl)cc1)N1CCC(CN2CCCCCC2)CC1 3.27%
COc1ccc(NC(=O)Cn2cc(C(=O)c3ccncc3)c(=O)c3cc(C)ccc32)cc1Cl -6.36%
COC(=O)c1ccc(-n2nnc(-c3nc(-c4ccccc4Cl)no3)c2C)cc1 4.81%
CCNC(=O)C1CCCN(c2ncnc3onc(C)c23)C1 (centres undefined) -8.33%
CN1CCN(C(=O)Cn2c(-c3cccs3)cc3ccccc32)CC1 -13%
COc1cc(OC)cc(C(=O)Nc2ccc(-c3nc4ccccc4s3)c(C)c2)c1 35.8%
COc1ccc(NC(=O)Cn2nc(-c3ccccc3)c3cnc4ccc(C)cc4c32)cc1 -7.01%
Cc1ccc(OCC(=O)Nc2ccc3c(c2)sc(=O)n3C)cc1 -5.59%
CCOC(=O)c1c(NC(=O)COc2ccc(CC)cc2)sc2c1CCCC2 -8.5%
Cc1ccc(-c2nc(C(=O)N3CCN(c4ccccc4)CC3)c3n2CCCCC3)cc1 -17.9%
COc1ccc(NC(=O)C(NC(=O)C2CCC(C)CC2)C(C)C)cc1 (centres undefined) 1.51%
CCC(Sc1ncccc1C(=O)Oc1ccccc1Cl)C(=O)Nc1ccccc1OC (centres undefined) -26.6%
Cc1ccc2c(=O)c(C(=O)c3ccccc3)cn(CC(=O)Nc3ccc(C)c(Cl)c3)c2n1 -1.9%
CCCNC(=O)c1ccc2c(c1)nc(C)n2-c1cccc(C)c1 -4.18%
Cc1nn(C)c2c1c(C(F)(F)F)cc(=O)n2C(C)C(=O)NCCC(C)C (centres undefined) -6.31%
CCOc1ccccc1NC(=O)c1ccc2c(c1)CCN2S(C)(=O)=O -5.16%
COc1cc(C2c3c(-c4cc(C)ccc4O)n[nH]c3C(=O)N2Cc2cccnc2)cc(OC)c1OC (centres undefined) 16.7%
CCn1cc2nc(SCC(=O)Nc3cc(OC)ccc3OC)n(Cc3ccc(Cl)cc3)c(=O)c2n1 -23.3%
Cc1ccc(-n2c(SCC(=O)N3CCc4ccccc43)nc3c([nH]c4ccccc43)c2=O)cc1 9.45%
O=C(Nc1ccc(OC(F)(F)F)cc1)c1cc2c(=O)n3ccccc3nc2s1 -12.2%
CCS(=O)(=O)N1CCc2cc(C(=O)Nc3cc([N+](=O)[O-])ccc3C)ccc21 -15.5%
O=C(CCn1c(=O)c2cccn2c2cccnc21)N1CCN(c2ccc(F)cc2)CC1 -9.59%
COc1ccc(C(=O)Nc2ccc3nc(SCC(=O)N4CCCC4)sc3c2)cc1 -9.47%
CC(C)(C)CC(C)(C)c1ccc(O)c(Cc2ccc(Cl)cc2Cl)c1 0.0198%
CCCC(=O)Nc1nnc(SCc2cc(=O)n3ccccc3n2)s1 -1.09%
O=C(NC1CCCCC1)c1ccc2c(c1)N(Cc1ccccc1F)C(=O)c1ccccc1S2 6.25%
Cn1c(=O)c(=O)n(C)c2cc(S(=O)(=O)N3CCCC3C(=O)Nc3cccc(F)c3)ccc21 (centres undefined) 2.21%
Cc1ccn2c(Nc3ccccc3C)c(-c3ccncc3)nc2c1 17.4%
Cc1ccc(CNC(=O)C2CCN(Cc3nc(-c4ccccc4C)oc3C)CC2)cc1 -6.57%
CN1CCN(c2c(F)cc3c(=O)c(C(=O)O)cn4c3c2OCN4C)CC1
CCN(CCN(C)C)C(=O)Cn1ncc2c([nH]c3ccc(C)cc32)c1=O 6.86%
CCCCn1c(CN2CCN(c3ccc(OC)cc3)CC2)nc2c1c(=O)[nH]c(=O)n2C -19%
Cc1cccc(NC(=O)CSc2nnc(CNC(=O)c3cccc(C)c3)n2-c2ccccc2)c1 -10.3%
COc1ccc(-c2noc(CN(C(=O)c3ccccc3Cl)C(C)C)n2)cc1 -24.7%
Cc1ccccc1Cn1c(-c2cccs2)nc2ccccc21 -14.8%
COC(=O)c1cc(Cl)c(NC(C)=O)cc1OC 15.3%
Cc1ccc2nc(CSc3nnc(NC(=O)CC(C)C)s3)cc(=O)n2c1 -1.43%
CCOc1ccc(CNC(=O)CCC(=O)N2Cc3ccccc3Oc3ncccc32)cc1 3.57%
